From patent US20240215584A1, “ARTICLE HAVING ANTIVIRAL PROPERTIES, ARTICLE HAVING ANTIMICROBIAL PROPERTIES, AND ARTICLE HAVING ANTIFUNGAL PROPERTIES” (NATIONAL INSTITUTE OF ADVANCED INDUSTRIAL SCIENCE AND …, priority 2021, published 2024)
In brackets after ≈: the same amount, converted by molar mass.

Test system: Pseudomonas aeruginosa resistance gene quadruple disruption strain YM64
Experiment: Minimum inhibitory concentration on bacteria
Settings: 20 h, read-out: minimum inhibitory concentration (MIC)
Method: First, a method for measuring the minimum inhibitory concentration on the bacteria will be described. First, 100 μL per hole of a 96-hole test plate was prepared using a Mueller Hinton medium (CAMHB) (and blood added as needed) supplemented with 20 mg/L of Ca^2+ and 10 mg/L of Mg^2+ to give a 2-fold dilution series. As a reagent, chlorhexidine was used as an example, and norfloxacin, which is an antibiotic, was used as a comparative example. Each bacterium was cultured in CAMHB (blood added as needed) and added to each of the holes of the test plate at approximately 10000 CFU/mL. The cultures were cultivated at 37° C. for 20 hours, and growth of the bacteria was visually confirmed, and the lowest concentration without growth of the bacteria was defined as the minimum inhibitory concentration (MIC: Minimum Inhibitory Concentration). […]
Minimum inhibitory concentrations (MIC) were measured against drug-sensitive bacteria and drug-resistant bacteria.

SMILES	MIC [µg/mL]
CCn1cc(C(=O)O)c(=O)c2cc(F)c(N3CCNCC3)cc21 [Norfloxacin, norfloxacin]	0.12 (≈ 0.376 µM)
N=C(NCCCCCCNC(=N)NC(=N)Nc1ccc(Cl)cc1)NC(=N)Nc1ccc(Cl)cc1 [chlorhexidine]	2 (≈ 3.96 µM)
